Hit rate of the full screen: of about 91,000 compounds, about 130 (0.14%) were called active. This list was built around the results that the source calls inconclusive (neither active nor inactive); the mix of calls is not that of the screen. Calls come from the whole dose curve; as a rule, active = well fitted inhibition curve with a large enough effect; inconclusive = small, poorly fitted or top-dose-only effect; inactive = flat fitted curve, though single readings scatter. Where the call is inconclusive, the potency comes from a doubtful curve fit.
These compounds were tested on Uracil-DNA glycosylase (assay: Primary qHTS assay for inhibitors of Activation Induced Cytidine Deaminase (AID): UDG Counterscreen signal). Conditions: FRET deamination/UDG coupled assay, UDG read, 4 h; activity change, negative = inhibition: at 115 µM (top of the series).
In the case of `CCOC(=O)c1c(-c2ccccc2)csc1NC(=O)c1nc(SCC)ncc1Cl`, the Potency is reported as inconclusive: 100 µM [inhibitor, single point]. With `CC(=O)Nc1ccc(NC(=O)c2ncoc2-c2ccco2)cc1` the Potency was inconclusive: 89.1 µM [inhibitor, single point]. In the case of `COc1ccc(C(=O)/C(=C/c2ccc(C)o2)c2nc3ccccc3o2)cc1OC`, the Potency is reported as inconclusive: 89.1 µM [inhibitor, single point]. In the case of `O=C(Nc1ccc(F)c(F)c1)c1cc(S(=O)(=O)C2CCS(=O)(=O)C2)ccc1F` (configuration not stated), the “activity change, negative = inhibition” value is reported as inactive: 1.6%. With `COC(=O)CSc1sc(=O)sc1SC` the “activity change, negative = inhibition” value was inactive: 1.82%. For `CC(Sc1nnc(-c2cccs2)n1-c1ccccc1)C(=O)Nc1ccc2c(c1)OCO2` (configuration not stated), the Potency was inconclusive: 89.1 µM [inhibitor, single point]. `Cn1c(=O)c2c(-c3ccccc3)n3c(c2n(C)c1=O)C(c1cc(Cl)ccc1O)Nc1ccccc1-3` (configuration not stated) was tested, and the Potency was inconclusive: 89.1 µM [inhibitor, single point]. In the case of `CCC(=O)Nc1ccc(S(=O)(=O)NCc2cccn2Cc2cccc(C)c2)cc1`, the Potency is reported as inconclusive: 100 µM [inhibitor, single point]. With `CCc1cccc(C)c1NS(=O)(=O)c1ccc2c(c1)NC(=O)C(C)C(=O)N2` (configuration not stated) the Potency was inconclusive: 79.4 µM [inhibitor, single point]. For `Cc1nc(SCC(=O)OC(C)(C)C)c2c3c(sc2n1)CCCC3`, the Potency was inconclusive: 100 µM [inhibitor, single point]. In the case of `CNS(=O)(=O)c1cn(CC(=O)N2CCN(c3ccc(Cl)cc3)CC2)cc1S(=O)(=O)NC`, the Potency is reported as inconclusive: 89.1 µM [inhibitor, single point]. With `Cc1cccc(-n2nnnc2SCc2cc(=O)oc3cc(O)ccc23)c1` the “activity change, negative = inhibition” value was inactive: -2.1%. In the case of `Cc1cccc(C)c1NC(=O)c1nc(SC(C)C)ncc1Cl`, the Potency is reported as inconclusive: 89.1 µM [inhibitor, single point]. With `CC1CCN(c2nc(SCC(=O)N3CCOCC3)c(C#N)c3c2CCCC3)CC1` the Potency was inconclusive: 89.1 µM [inhibitor, partial curve, poor fit]. In the case of `CC(=O)N1c2ccccc2CC1C(=O)N1CCN(c2cc(Cl)ccc2C)CC1` (configuration not stated), the Potency is reported as inconclusive: 100 µM [inhibitor, single point]. With `Cc1ccc(C)c(N2CCN(CCCNC(=O)c3cnn(-c4ccccc4Cl)c3C3CCN(C(=O)OC(C)(C)C)CC3)CC2)c1` the Potency was inconclusive: 89.1 µM [inhibitor, single point]. With `Cc1nc2c(cc(Oc3cnccn3)c3ccsc32)s1` the “activity change, negative = inhibition” value was inactive: -4.45%. For `Cc1ccccc1N1CC(c2nc3ccccc3n2CCC2CCCCC2)CC1=O` (configuration not stated), the Potency was inconclusive: 89.1 µM [inhibitor, partial curve, poor fit]. For `CCOC(=O)C1CCC(CN(Cc2cccc(Br)c2)S(=O)(=O)c2ccc(C)cc2)CC1` (configuration not stated), the Potency was inconclusive: 89.1 µM [inhibitor, single point]. For `CCOc1ccc(/C=C/c2nc(C#N)c(N3CCN(C(=O)c4ccco4)CC3)o2)cc1`, the Potency was inconclusive: 89.1 µM [inhibitor, single point]. `CCc1nc2ccccc2n1CCCCOc1ccc(C)cc1` was tested, and the Potency was inconclusive: 39.8 µM [inhibitor, single point]. In the case of `CCOc1cc(CNC(=O)c2sc3ncnc(N(C)C4CCCCC4)c3c2C)ccc1OC`, the Potency is reported as inconclusive: 89.1 µM [inhibitor, single point]. In the case of `CC(=O)c1cccc(OCC(O)COc2cc3sc(C)nc3c3sccc23)c1` (configuration not stated), the Potency is reported as inconclusive: 44.7 µM [inhibitor, partial curve, poor fit]. `CC(=O)c1ccc(C(=O)N(C)Cc2ccc(F)cc2)s1` was tested, and the “activity change, negative = inhibition” value was inactive: -3.05%. For `COc1ccc(-c2ccc(CCC(=O)O)n2NC(=O)c2ccccc2Cl)cc1`, the “activity change, negative = inhibition” value was inactive: 0%. In the case of `Cc1cccc(OCC(=O)Nc2nc(-c3ccc(S(=O)(=O)N4CCOCC4)cc3)cs2)c1C`, the “activity change, negative = inhibition” value is reported as inactive: -0.774%. `CN1C(=O)C2(C(C#N)=C(N)N(c3ccccc3)C3=C2C(=O)OC3)c2ccccc21` (configuration not stated) was tested, and the “activity change, negative = inhibition” value was inactive: -0.348%. In the case of `Cc1ccc(NC(=O)CCCc2nc3ccccc3o2)c(C)c1`, the “activity change, negative = inhibition” value is reported as inactive: 1.66%. With `Cc1ccc(OCc2ccc(C(N)=O)cc2)cc1` the “activity change, negative = inhibition” value was inactive: -0.722%. For `COc1cc(C)c(C)cc1S(=O)(=O)Nc1cccc(-c2ccc(N3CCOCC3)nn2)c1`, the Potency was inconclusive: 79.4 µM [inhibitor, partial curve]. `CC(C)(C)OC(=O)N1CCC(c2c(C(=O)NCCN3CCC(Cc4ccccc4)CC3)cnn2-c2ccc(F)cc2)CC1` was tested, and the Potency was inconclusive: 79.4 µM [inhibitor, single point]. For `Cc1ccc(CCNC(=O)C2CCN(Cc3nc(-c4ccccc4C)oc3C)CC2)cc1`, the Potency was inconclusive: 89.1 µM [inhibitor, partial curve, poor fit]. `CCc1ccc(OCC2c3cc(OC)c(OC)cc3CCN2C(=O)COc2ccccc2)cc1` (configuration not stated) was tested, and the Potency was inconclusive: 25.1 µM [inhibitor, partial curve, poor fit]. For `Cc1cc(Oc2cc(C#N)c(C#N)cc2Oc2cc(C)c(Cl)c(C)c2)cc(C)c1Cl`, the “activity change, negative = inhibition” value was inactive: -14%. With `CCOc1ccc(CCNC(=O)c2cc3c(-c4ccc(OC)c(OC)c4)nn(C)c3s2)cc1OCC` the Potency was active: 79.4 µM. `COc1ccc(C(=O)Cn2c(=O)c(-c3cc(C)ccc3NC(C)=O)nc3ccccc32)cc1` was tested, and the Potency was inconclusive: 100 µM [inhibitor, single point]. In the case of `CN(C)c1ccc(NC(=O)Cn2cc(S(=O)(=O)Cc3cccc(Cl)c3)c3ccccc32)cc1`, the Potency is reported as inconclusive: 89.1 µM [inhibitor, single point]. In the case of `COc1ccc(CNCCC(c2ccccc2)c2ccc3c(c2)OCO3)cc1` (configuration not stated), the “activity change, negative = inhibition” value is reported as inactive: 5.18%. For `O=C(/C=C/Nc1cc(C(F)(F)F)cc(C(F)(F)F)c1)c1ccc(Cl)cc1Cl`, the “activity change, negative = inhibition” value was inactive: -11.4%. With `CCCCn1c(NCc2cc(Cl)ccc2O)nc2ccccc21` the “activity change, negative = inhibition” value was inactive: 19.3%. With `CCN(CCCNC(=O)CSc1cc(=O)n(CC)c2ccccc12)c1cccc(C)c1` the Potency was inconclusive: 89.1 µM [inhibitor, partial curve, poor fit]. For `COCCn1c(=O)c2c(nc(-n3nc(C)cc3C)n2CCCc2ccccc2)n(C)c1=O`, the “activity change, negative = inhibition” value was inactive: 1.03%. For `Cc1cc(C)c(C)c(SC(C(N)=O)c2ccccc2)c1C` (configuration not stated), the “activity change, negative = inhibition” value was inactive: 1.69%. For `Cc1ccccc1Cc1c(C)nc2nc(SCC(=O)NCCc3ccc(Cl)cc3)nn2c1C`, the “activity change, negative = inhibition” value was inactive: -25.4%. In the case of `CCOc1ccc(N(CC)S(=O)(=O)N2CCCC(C(=O)Nc3cc(Cl)ccc3OC)C2)cc1` (configuration not stated), the Potency is reported as inconclusive: 70.8 µM [inhibitor, single point]. With `COc1ccccc1NC(=O)CSC1=Nc2ccccc2C2=NC(CCC(=O)NCc3cccs3)C(=O)N12` (configuration not stated) the Potency was inconclusive: 89.1 µM [inhibitor, single point]. In the case of `Cc1ccc(Cl)cc1N(C)C(=O)c1cn(C2CCCCC2)c(=O)c2c1c1ccccc1n2C`, the Potency is reported as inconclusive: 79.4 µM [inhibitor, partial curve]. In the case of `COc1cccc(/C=C(/C#N)C(=O)c2ccccc2)c1OC(F)F`, the “activity change, negative = inhibition” value is reported as inactive: -8.07%. With `Cc1cc(NC(=O)Nc2nnc(N(C)Cc3ccccc3)s2)ccc1Br` the Potency was inconclusive: 56.2 µM [inhibitor, partial curve, poor fit]. For `CCOc1ccc(CNS(=O)(=O)c2ccc(-c3coc(C)n3)cc2)cc1`, the “activity change, negative = inhibition” value was inactive: 0.875%. With `Cc1ccc(NC(=O)CN2c3cccc4cccc(c34)S2(=O)=O)c(S(=O)(=O)N2CCCCC2)c1` the Potency was inconclusive: 89.1 µM [inhibitor, single point]. For `COc1ccc(N(C(=O)c2cccc(C)c2)S(=O)(=O)c2ccc(Cl)cc2)cc1`, the Potency was inconclusive: 89.1 µM [inhibitor, single point]. With `Cc1ccc(Cl)cc1N1CCN(CCNC(=O)Nc2ccc(Cl)cc2)CC1` the “activity change, negative = inhibition” value was inactive: -1.29%. In the case of `O=C(CCNc1nc(Cl)nc2nc[nH]c12)NC1CC1`, the “activity change, negative = inhibition” value is reported as inactive: -10.7%. For `Cc1ccc(S(=O)(=O)CCC(=O)N2CCN(c3nc4c(C)c(Cl)ccc4s3)CC2)cc1`, the Potency was inconclusive: 89.1 µM [inhibitor, partial curve, poor fit]. With `COc1cccc(-c2nn(C)c3sc(C(=O)N4CCN(c5cccc(C)c5)C(C)C4)cc23)c1` (configuration not stated) the Potency was inconclusive: 89.1 µM [inhibitor, partial curve, poor fit]. With `Cc1ccccc1NC(=O)CN1C(=O)CCn2nc(-c3cccn3C)cc21` the Potency was inconclusive: 79.4 µM [inhibitor, partial curve, poor fit]. With `COc1ccc(C(=O)/C(C#N)=C\c2ccc(OC(F)F)c(OC)c2)cc1` the “activity change, negative = inhibition” value was inactive: -7.05%. In the case of `Cc1ccccc1-c1noc(CSc2nnc(-c3ccncc3)n2-c2ccc(F)cc2)n1`, the Potency is reported as inconclusive: 31.6 µM [inhibitor, partial curve, poor fit]. With `Cc1oc(-c2ccc(C(=O)NCc3ccccc3)cc2)nc1CS(=O)(=O)c1ccccc1` the “activity change, negative = inhibition” value was inactive: -6.41% [at 57.5 µM]. `Cc1ccc(Cl)cc1NC(=O)C(=O)c1cn(CC(=O)N2CCOCC2)c2ccccc12` was tested, and the “activity change, negative = inhibition” value was inactive: -4.68%. In the case of `CCc1cccc(C)c1NC(=O)C(C)Sc1nc2c(c(=O)[nH]1)CCCC2` (configuration not stated), the Potency is reported as inconclusive: 35.5 µM [inhibitor, partial curve, poor fit]. `COc1ccc(N2CCN(C(=O)CCn3cnc4onc(-c5ccc(F)cc5)c4c3=O)CC2)cc1` was tested, and the Potency was inconclusive: 100 µM [inhibitor, single point]. In the case of `Cc1ccc(NC(=O)CSc2[nH]c(=O)ncc2C)cc1`, the Potency is reported as inconclusive: 89.1 µM [inhibitor, single point]. In the case of `COc1ccc(S(=O)(=O)Cc2ccc(C(=O)NC3CCCCC3)o2)cc1`, the Potency is reported as inconclusive: 89.1 µM [inhibitor, partial curve, poor fit]. For `C=CCSc1nc(-c2cccs2)cc(C(F)(F)F)c1C#N`, the “activity change, negative = inhibition” value was inactive: -3.5%. `CCn1c(NCc2cccc(Cl)c2)nc2ccccc21` was tested, and the Potency was inconclusive: 79.4 µM [inhibitor, single point].
% is set by controls: 0 for no effect and ±100 for the full control effect; potency is the fitted concentration of half-maximal effect; tags give direction and shape of the fitted curve.
Note: nearly all actives have a fitted effect of over 65% in size.
